# From PubChem BioAssay AID504332 (National Center for Advancing Translational Sciences (NCATS), 2011)
# Out of some 350,000 compounds screened, about 31,000 (8.9%) were called active. This list was built around the results that the source calls inconclusive (neither active nor inactive); the mix of calls is not that of the screen. Calls come from the whole dose curve; as a rule, active = well fitted inhibition curve with a large enough effect; inconclusive = small, poorly fitted or top-dose-only effect; inactive = no such curve, though single readings can be large or run the other way. A potency beside an inconclusive call is a rough fit, not a confirmed value.
# Biological target: Histone-lysine N-methyltransferase EHMT2 (Homo sapiens) (UniProt Q96KQ7)
# Sequence of UniProt Q96KQ7 (Q96KQ7 whole entry, looked up): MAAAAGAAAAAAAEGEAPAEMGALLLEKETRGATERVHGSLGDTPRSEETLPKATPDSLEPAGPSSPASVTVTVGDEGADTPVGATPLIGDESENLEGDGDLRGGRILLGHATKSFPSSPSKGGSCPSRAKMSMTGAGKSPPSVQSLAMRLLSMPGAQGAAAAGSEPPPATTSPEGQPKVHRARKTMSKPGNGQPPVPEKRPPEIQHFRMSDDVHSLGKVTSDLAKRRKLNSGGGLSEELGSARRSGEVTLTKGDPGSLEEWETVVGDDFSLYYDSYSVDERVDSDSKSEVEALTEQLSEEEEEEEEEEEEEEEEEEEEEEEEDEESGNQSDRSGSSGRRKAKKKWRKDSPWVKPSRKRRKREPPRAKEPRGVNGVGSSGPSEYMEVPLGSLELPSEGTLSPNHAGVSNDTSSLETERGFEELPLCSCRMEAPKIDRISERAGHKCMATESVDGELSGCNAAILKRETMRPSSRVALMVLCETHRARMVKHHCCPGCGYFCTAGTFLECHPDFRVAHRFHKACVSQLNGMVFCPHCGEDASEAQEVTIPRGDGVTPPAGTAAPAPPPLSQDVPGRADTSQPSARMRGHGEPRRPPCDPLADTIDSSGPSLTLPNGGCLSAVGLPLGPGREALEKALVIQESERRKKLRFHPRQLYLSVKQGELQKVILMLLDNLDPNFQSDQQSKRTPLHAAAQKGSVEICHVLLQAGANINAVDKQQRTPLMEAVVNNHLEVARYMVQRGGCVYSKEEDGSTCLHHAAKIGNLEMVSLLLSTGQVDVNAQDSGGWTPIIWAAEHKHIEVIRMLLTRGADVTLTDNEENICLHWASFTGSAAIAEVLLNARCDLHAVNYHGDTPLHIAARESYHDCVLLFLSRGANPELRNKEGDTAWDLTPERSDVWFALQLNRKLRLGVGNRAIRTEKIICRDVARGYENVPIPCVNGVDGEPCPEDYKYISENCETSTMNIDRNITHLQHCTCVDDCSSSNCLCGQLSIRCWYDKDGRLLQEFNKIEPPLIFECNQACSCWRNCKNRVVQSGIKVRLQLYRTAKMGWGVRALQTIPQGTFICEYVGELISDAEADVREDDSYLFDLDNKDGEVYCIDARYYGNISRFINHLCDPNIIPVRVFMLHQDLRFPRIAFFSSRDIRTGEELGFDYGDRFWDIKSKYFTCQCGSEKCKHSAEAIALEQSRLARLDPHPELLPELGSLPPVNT
# Experiment: qHTS Assay for Inhibitors of Histone Lysine Methyltransferase G9a; note: nearly all actives have a fitted effect of over 75% in size
# Conditions: G9a H3K9 monomethylation, AlphaScreen, 2 h; activity, negative = inhibition: at 59 µM (top of the series) unless noted
# Summary of the method: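 G9a (20 nM) preincubated 15 min RT with compounds, then 500 nM biotinylated H3K9 peptide and 20 uM SAM added; 2 h RT reaction. Monomethyl-H3K9 product detected by AlphaScreen with anti-H3K9me1 antibody, streptavidin donor and anti-rabbit IgG acceptor beads.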
# % is set by controls: 0 for no effect and ±100 for the full control effect; potency is the fitted concentration of half-maximal effect; tags give direction and shape of the fitted curve.
SMILES,Potency,"activity, negative = inhibition"
CCOc1ccccc1NC(=O)CN1C(=O)CC(c2ccc(C)c(C)c2)=Nc2ccccc21,inactive,–
C(=N\N1CCN(Cc2ccccc2)CC1)/c1cccs1,"inconclusive: 20 µM [inhibitor, single point]",–
CC1CCN(S(=O)(=O)c2ccc3c(c2)N(C)C(=O)CC(=O)N3C)CC1,active: 28.2 µM,–
COc1ccc(N2CSC3=C(C#N)C(c4ccc(OC)c(OC)c4)CC(=O)N3C2)c(OC)c1 (stereo not given),active: 2.51 µM,–
C/C(=N\NC(=S)Nc1ccc(F)cc1)c1ccc2c(c1)OCCO2,"inconclusive: 20 µM [inhibitor, single point]",–
Cc1nnc(NC(=O)c2nn(CC(C)C)c(=O)c3ccccc23)s1,inactive,–
COc1cccc(OCC(O)CN2CCN(c3ccccc3)CC2)c1 (stereo not given),inactive,–
C/C(NCCCn1ccnc1)=C(\C#N)C(N)=O,inactive,–
COc1ccc2cc(C(N)=O)c(=Nc3ccccc3)oc2c1,inactive,–
COc1ccccc1Nc1c([N+](=O)[O-])cncc1[N+](=O)[O-],"inconclusive: 44.7 µM [inhibitor, partial curve]",–
O=C(NCCN1CCOCC1)c1ccc2c(c1)N(Cc1c(F)cccc1Cl)C(=O)c1ccccc1S2,"inconclusive: 44.7 µM [inhibitor, partial curve]",–
CC(Oc1cc2oc(=O)c3c(c2cc1Cl)CCCC3)C(=O)NCc1ccncc1 (stereo not given),inactive,–
O=C(NCc1cccc(Br)c1)C1CCCCN1S(=O)(=O)c1ccc(F)cc1 (stereo not given),inactive,–
Cn1c(CC(=O)NNC(=O)c2ccccc2[N+](=O)[O-])nc2ccccc21,–,inactive: -3.05% [at 12.7 µM]
CCn1c(/C=N/NC(=O)c2ccc(OC)cc2)nc2ccccc21,"inconclusive: 89.1 µM [inhibitor, single point]",–
CC1(C)Cc2c(C#N)c(NC3CCCCC3)nc(-c3ccco3)c2CO1,active: 11.2 µM,–
NC(=O)CC(NC(=O)Cc1cccc2ccccc12)c1ccc(N2CCCCCC2)c([N+](=O)[O-])c1 (stereo not given),"inconclusive: 89.1 µM [inhibitor, single point]",–
CCC(C)Sc1nc2c(c(=O)[nH]c(=O)n2C)n1Cc1ccc(Cl)cc1 (stereo not given),"inconclusive: 56.2 µM [inhibitor, partial curve, poor fit]",–
CC(C)(C)c1csc(NNC(=O)c2ccc(Cl)cc2)n1,active: 39.8 µM,–
Cc1ccc(-c2csc(N3CCC(NS(=O)(=O)c4ccc5c(c4)OCCO5)CC3)n2)cc1,"inconclusive: 100 µM [inhibitor, single point]",–
O=C(CN1C(=O)C2CCCCC2C1=O)OCC(=O)c1ccc(Cl)s1 (stereo not given),inactive,–
CCOc1ccccc1NC(=O)Cn1c(=O)nc(-c2ccccc2F)c2cc(Cl)ccc21,inactive,–
COc1ccccc1NC(=O)c1cc2c(-c3ccccc3)nn(-c3ccccc3)c2s1,inactive,–
COc1cccc(OCCSc2nc3ccccc3n2CC(=O)N2CCOCC2)c1,"inconclusive: 35.5 µM [inhibitor, single point]",–
Cc1ccc(N(Cc2cccs2)C(=O)c2ccc(OC(C)C)cc2)cc1,inactive,–

SMILES,Potency,"activity, negative = inhibition"
CCOC(=O)N1CCC(NC(=O)c2csc3c2CCCC3)CC1,"inconclusive: 5.01 µM [inhibitor, full curve, poor fit]",–
Cc1ccn2c(=O)c(NC(=O)c3cccs3)c(C)nc2c1,inactive,–
Cc1c(C(=O)c2ccc(Br)cc2)c(=O)n(C)c(=O)n1C,"inconclusive: 44.7 µM [inhibitor, partial curve, poor fit]",–
Cn1c(SCc2ccc(F)cc2)nc2ccc(C(=O)NCc3cccc(Cl)c3)cc21,inactive,–
COc1ccc(N2CCN(C(=O)Cc3csc(NC(=O)Nc4ccccc4OC)n3)CC2)cc1,active: 7.94 µM,–
O=S1(=O)OC(c2ccc(O)cc2)(c2ccc(O)cc2)c2ccccc21,"inconclusive: 17.8 µM [inhibitor, partial curve]",–
FC(F)(F)C(F)(F)C(F)(F)C(F)(F)C(F)(F)F,–,inactive: 1.19% [at 12.7 µM]
Cn1cccc1C(=O)N1CCC2(CC1)CN(c1ccncc1)C2,–,inactive: 38.6% [at 12.7 µM]
CN(C)CCOC(=O)C1(c2ccccc2)CCCC1,inactive,–
CCOC(=O)c1cccc(NC(=O)COc2ccc3c(C)cc(=O)oc3c2)c1,inactive,–
COc1ccccc1C(=O)N/C(=C/c1ccco1)C(=O)Nc1cccc(C(=O)O)c1,"inconclusive: 39.8 µM [inhibitor, single point]",–
Cc1cc(C)c2cc(CN(Cc3ccc4c(c3)OCO4)Cc3nnnn3Cc3ccco3)c(=O)[nH]c2c1,–,inactive: -8.15% [at 12.7 µM]
COC(=O)CN(c1cccc(C(C)=O)c1)S(C)(=O)=O,"inconclusive: 3.16 µM [inhibitor, partial curve, poor fit]",–
COc1cc(/C=N/Nc2ccc([N+](=O)[O-])cc2S(=O)(=O)N2CCOCC2)cc(OC)c1OC,"inconclusive: 89.1 µM [inhibitor, single point]",–
O=C(C1=C(O)C(=O)N(CCCN2CCOCC2)C1c1ccncc1)c1cc2ccccc2o1 (stereo not given),"inconclusive: 35.5 µM [inhibitor, single point]",–
CC(C)(C)n1nnnc1C(c1cccnc1)N1CCOCC1 (stereo not given),inactive,–
CCOC(=O)c1ccc(NC(=O)CC2OCCN(CC)C2=O)cc1 (stereo not given),"inconclusive: 39.8 µM [inhibitor, single point]",–
Cc1ccc2nc(SCC(=O)c3c(C)[nH]c4ccccc34)[nH]c2c1,"inconclusive: 0.501 µM [inhibitor, full curve, poor fit]",–
Cc1ccc(C)c(NC(=O)c2cnc(N3CCCC3)nc2C)c1,–,inactive: 2.73% [at 12.7 µM]
O=c1cnc2cnc(Oc3ccccc3)nc2n1Cc1cccs1,–,inactive: -8.6% [at 12.7 µM]
COc1ccccc1/C=C/c1nc(C#N)c(NCc2ccccc2)o1,"inconclusive: 22.4 µM [inhibitor, partial curve, poor fit]",–
CCCCC(=O)NC(=S)Nc1c(C)cc(Br)cc1C,active: 10 µM,–
CC1CC(O)CC(C)(C)C1 (stereo not given),–,inactive: 0.395% [at 12.7 µM]
CC(C)(C#N)C(C)(C)c1nn[nH]n1,"inconclusive: 100 µM [inhibitor, single point]",–
Cc1cccc(-c2nc(=S)c3c(n2Cc2ccco2)CCCC3)c1,–,inconclusive: -56.1% [inhibitor]

SMILES,Potency,"activity, negative = inhibition"
COc1ccc(-c2cn3c(n2)sc2cc(C(=O)NCCc4ccccc4)ccc23)cc1,inactive,–
CCOc1ccccc1C(=O)Nc1cccc(-c2nc3ccccc3s2)c1,"inconclusive: 10 µM [inhibitor, partial curve]",–
CCn1c(C)nc2cc(C(=O)NNC(=S)Nc3ccc(C)cc3)ccc21,–,inconclusive: -95.8% [inhibitor]
CNc1ccc(/C=C2\COc3ccccc3C2=O)cc1[N+](=O)[O-],inactive,–
COc1cc2oc(=O)cc(-c3ccc(-c4ccc(NC(C)=O)cc4)cc3)c2c(OC)c1OC,inactive,–
CC1=C(C(=O)O)N2C(=O)[C@@H](NC(=O)[C@@H](N)c3ccc(O)cc3)[C@@H]2SC1,inactive,–
Cc1cc(C)cc(NC(=O)NCc2noc3ccccc23)c1,inactive,–
COc1ccc(-n2c(CCc3ccccc3)nnc2SCC(=O)NCc2ccccc2)cc1,"inconclusive: 22.4 µM [inhibitor, single point]",–
N#CC1=C(S)N(c2ccccc2)C(c2ccc(-c3cccc(Cl)c3)o2)NC1=O (stereo not given),"inconclusive: 22.4 µM [inhibitor, single point]",–
NC(N)=NCCCc1cn(CC(=O)N2CCNCC2)nn1,–,inconclusive: -63.5% [inhibitor]
COc1ccc(S(=O)(=O)CCC(=O)NCCc2ccc(C)cc2)cc1,"inconclusive: 39.8 µM [inhibitor, single point]",–
O=C(Cc1ccc(Cl)cc1)NC1CC(=O)N(c2ccc3c(c2)OCCO3)C1 (stereo not given),inactive,–
COc1ccc(-c2nnc3sc(C(C)N4C(=O)c5ccccc5C4=O)nn23)cc1 (stereo not given),"inconclusive: 22.4 µM [inhibitor, single point]",–
Cc1ccc(S(=O)(=O)c2nc(S(C)(=O)=O)sc2N2CCC(C)CC2)cc1,active: 35.5 µM,–
CCCc1nnc(SCC(=O)Nc2ccc3c(c2)OCCO3)n1CCOC,"inconclusive: 7.94 µM [inhibitor, partial curve, poor fit]",–
FC(F)Oc1cccc2cccnc12,inactive,–
Cc1oc(-c2cccs2)nc1CN1CCN(C2CCCC2)C(CCO)C1 (stereo not given),"inconclusive: 79.4 µM [inhibitor, single point]",–
C=C1CCC2[C@](C)(CO)[C@H](O)CC[C@@]2(C)[C@@H]1C/C=C1\C(=O)OC[C@H]1O (stereo not given in full),–,inactive: -0.413% [at 12.7 µM]
CCc1noc(C)c1C(=O)N1CCN(S(=O)(=O)c2ccc(C)cc2C)CC1,"inconclusive: 50.1 µM [inhibitor, partial curve, poor fit]",–
CC(C)c1ccc(NC2CCCN(C(=O)c3cnn(C(C)C)c3)C2)cc1 (stereo not given),inactive,–
CCOc1ccc(C(c2c(O)cc(C)n(Cc3ccco3)c2=O)N2CCN(C)CC2)cc1 (stereo not given),"inconclusive: 39.8 µM [inhibitor, single point]",–
COc1cc2c(cc1OC)CN(S(=O)(=O)/C=C/c1ccccc1)CC2,"inconclusive: 2.24 µM [inhibitor, full curve]",–
Cc1ccc(S(=O)(=O)N2[C@@H](c3ccccc3F)C(C(=O)O)=CC[C@H]2c2ccc(C(C)C)cc2)cc1,–,inactive: 13.8% [at 2.33 µM]
COc1cccc(N2CC(NC(=O)/C=C\c3ccccc3)CC2=O)c1 (stereo not given),inactive,–
O=C(NC1CCS(=O)(=O)C1)c1cc(-c2ccccc2)nc2ccccc12 (stereo not given),inactive,–
